Laboratory results: PubChem BioAssay AID1347417 (National Center for Advancing Translational Sciences (NCATS), 2020)
Where “and” joins values, the source holds several entries; their conditions need not be identical. Equal values may be shown once. About 5,300 (4.4%) of roughly 120,000 compounds were called active. Inconclusive means that the source gave no clear call. Such entries were picked first, then a sample of the others. Calls come from the whole dose curve; as a rule, active = well fitted inhibition curve with a large enough effect; inconclusive = small, poorly fitted or top-dose-only effect; inactive = no such curve, though single readings can be large or run the other way. Where the call is inconclusive, the potency comes from a doubtful curve fit.

Assay: qHTS Primary assay for Inhibitors of Plasmodium falciparum Dd2 growth in vitro; note: nearly all actives have a fitted effect of over 65% in size;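 for activity, negative = inhibition: plate controls were DMSO vehicle for no effect and reference drug for full effect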
Details: P. falciparum Dd2 growth, SYBR Green, 72 h; activity, negative = inhibition: at 28.9 µM (top of the series) unless noted; series mostly up to 28.9 µM
Procedure, shortened: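 Readout: SYBR Green fluorescence, 485 nm excitation, 535 nm emission, after ~16 h lysis at 37C. Before that, Dd2-infected red cells (2.5% hematocrit) grew 72 h with compound, 29 uM top final concentration.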
Potency is the fitted concentration of half-maximal effect; tags give direction and shape of the fitted curve.

SMILES	Potency	activity, negative = inhibition
O=C(Nc1cccc(F)c1)N1C[C@@H]2C[C@H](C1)c1c(-c3cc4ccccc4s3)ccc(=O)n1C2	inconclusive: 17.8 µM [inhibitor, single point]	
Cn1cccc1CN1C[C@@H](COc2ccncc2)[C@H](c2ccccn2)C1	inconclusive: 0.891 µM [inhibitor, full curve, poor fit]	
Cc1oc2ncn(CC(C)C)c(=O)c2c1C(=O)NCCCN(C)Cc1ccccc1	inconclusive: 17.8 µM [inhibitor, single point]	
OC[C@@H]1O[C@H](CNC2CCOCC2)[C@H](N2CCN(c3ncccn3)CC2)[C@@H]1O	inactive	
COCCN(Cc1ccccc1F)Cc1cc2c(cc1OC)OCO2	inconclusive: 3.16 µM [inhibitor, partial curve]	
COc1ccccc1N1CCN(CC[C@@H]2CC[C@H](O)[C@@H](C(=O)NC3CCCCC3)O2)CC1	inconclusive: 10 µM [inhibitor, single point]	
COc1ccc(CN2Cc3[nH]cnc3C[C@H]2C(=O)N(C)Cc2ccccc2)c2ccccc12	active: 5.62 µM	
CC1=C[C@@H](CN2CCN(CCO)CC2)[C@H](C(C)C)C[C@H]1Cc1nnc(Cc2c[nH]c3ccccc23)o1	inconclusive: 2 µM [inhibitor, full curve, poor fit]	
CC1(COc2cccnc2)COc2ccc(C(=O)NCCc3ccccc3)cc2N1 (stereo not given)	inconclusive: 31.6 µM [inhibitor, single point]	
CC1=C[C@@H](CO)[C@H](C(C)C)C[C@H]1Cc1nnc(C(C)(C)C)o1	inconclusive: 15.8 µM [inhibitor, single point]	
CCn1c(C)c(C)c2cc(C(=O)NCCc3cc(OC)ccc3OC)ccc21	inconclusive: 17.8 µM [inhibitor, partial curve, poor fit]	
CC1(c2ccccc2)N(Cc2ncccn2)C(=O)OC12CCN(C(=O)c1ccc(Oc3ccccc3)cc1)CC2 (stereo not given)	inconclusive: 1.41 µM [inhibitor, partial curve, poor fit]	
COC(=O)c1ccc2c(c1)N(Cc1cc(C)ccc1C)C(=O)c1ccccc1S2(=O)=O	inconclusive: 12.6 µM [inhibitor, partial curve, poor fit]	
COC[C@@H]1CN(Cc2ccc(F)c(OC)c2)C[C@H]1C(=O)NC1CC1	inconclusive: 12.6 µM [inhibitor, partial curve, poor fit]	
COc1ccccc1N1CCN(C(=O)Cn2cccc2-c2nc(-c3ccccc3)no2)CC1	inconclusive: 10 µM [inhibitor, single point]	
Cc1nc2c(c(-c3ccc(O)cc3)n1)CN(Cc1ccc(OC(F)(F)F)cc1)CCC2	inconclusive: 1 µM [inhibitor, partial curve, poor fit]	
CC(=O)NCC(=O)N1Cc2ccccc2CC2(CCN(CC3CCNC3)CC2)C1 (stereo not given)	inactive	
O=c1cc(-c2ccncc2)oc2c(-c3cccc(CO)c3)nccc12	inconclusive: 0.891 µM [inhibitor, full curve, poor fit]	
COc1ccc(CCNC(=O)c2ccc3c(c2)CCN3S(=O)(=O)c2ccc(C)cc2)cc1OC		inconclusive: -71.3% [inhibitor] [at 5.79 µM]
Cc1ccccc1N(C)C1CN(C(=O)OC(C)(C)C)C1	inconclusive: 8.91 µM [inhibitor, partial curve]	
CCOC(=O)C1(Cc2cccc(C(F)(F)F)c2)CCN(Cc2ccc(COC)o2)CC1	active: 8.91 µM	
Cc1cccc(NC(=O)c2ccc(Cn3nc(N4CCN(c5ccccc5)CC4)ccc3=O)o2)c1C	active: 11.2 µM	

SMILES	Potency	activity, negative = inhibition
COc1cccc2c1CCN=C2C[C@H]1CN(C(=O)C2CCC2)CC[C@H]1CC(=O)O	inactive	
O=C(c1cnccn1)N1CCC2(CC1)NCCc1c2[nH]c2ccccc12	inconclusive: 3.98 µM [inhibitor, single point]	
Fc1cccc(Nc2nc(-c3ccccc3)no2)c1	inconclusive: 15.8 µM [inhibitor, single point]	
Cc1ccc(-c2cc3c(=O)n(CCNC(=O)c4cccc5[nH]ccc45)ccn3n2)cc1C	inconclusive: 3.98 µM [inhibitor, full curve]	
COC(=O)c1ccc2c(c1)N(CC(=O)Nc1ccc(C)cc1Cl)C(=O)c1ccccc1S2	inconclusive: 11.2 µM [inhibitor, single point]	
COc1cccc([S+](=O)([O-])N2CCC3(C2)C(=O)N(C)c2ccccc23)c1 (stereo not given)	inconclusive: 17.8 µM [inhibitor, single point]	
Cc1ccccc1Cn1cc(S(=O)(=O)c2ccc(F)cc2)c(=O)c2cc3c(cc21)OCO3	inconclusive: 8.91 µM [inhibitor, single point]	
CCn1ccnc1C1CCN(C(=O)CC2NC(=O)NC2=O)CC1 (stereo not given)	inactive	
Cc1cc(Cl)ccc1OCCSc1nnc(-c2cccs2)o1	inconclusive: 10 µM [inhibitor, single point]	
O=C(NC1CC1)c1nc(-c2ccc(F)cc2)c2cnccn12	active: 8.91 µM and active: 11.2 µM	
O=S(=O)(c1ccc2nc(Nc3ccc(Br)cc3F)ccc2c1)N1CCCCC1	inconclusive: 11.2 µM [inhibitor, single point]	
CN(Cc1nc(Cc2ccccc2Cl)no1)Cc1cccc2cnccc12	inactive	
CN1CCCN(C[C@@H]2CN(S(C)(=O)=O)C[C@@H]2CO)CC1	inactive	
Cc1cccc(CN2CCCC(C(=O)O)CCNC(=O)CC2)c1 (stereo not given)	inactive	
COc1cc(OC)cc(C(=O)Nc2cccc(-c3cn4ccsc4n3)c2)c1	inconclusive: 11.2 µM [inhibitor, single point]	
O=C(CN1C(=O)NC2(CCCCC2)C1=O)Nc1ccc(F)c(Cl)c1	inactive	
COc1ccccc1CC(=O)N1CCCc2ncc(C(=O)NCc3ccc(OC)c(OC)c3)cc21	inconclusive: 2.51 µM [inhibitor, partial curve, poor fit]	
O=C(NC1CCCN(c2cc(-c3ccc(F)cc3)[nH]n2)C1)c1ccc2c(c1)OCO2 (stereo not given)	inactive	
Cc1ccc(-c2nc(CN3C(=O)CN=C(c4ccccc4Cl)c4cc(Cl)ccc43)c(C)o2)cc1	active: 11.2 µM	
CCOC(=O)c1cc2c(=O)n3ccccc3nc2n(C(C)C)c1=NC(=O)c1c(-c2c(F)cccc2Cl)noc1C	inconclusive: 11.2 µM [inhibitor, single point]	
CC(C)(N)C(=O)N1CCCC(N2CCN(c3ccc(F)cc3)CC2)C1 (stereo not given)	inactive	
O=C(c1cccc(F)c1)N1CCC(N2CC3CC(C2)[C@H]2CCCC(=O)N2C3)CC1 (stereo not given in full)	inactive	

SMILES	Potency	activity, negative = inhibition
COc1ccc(OC)c(CNc2ncnc3onc(C)c23)c1	inconclusive: 7.08 µM [inhibitor, partial curve, poor fit]	
Cc1ccc(N(CC(=O)N2CCN(c3cccc(C)c3C)CC2)S(=O)(=O)c2c(C)nn(C)c2C)cc1	inconclusive: 17.8 µM [inhibitor, single point]	
CS(=O)(=O)N1CCC(C2CCN(Cc3ccc4c(c3)CCO4)C2)CC1 (stereo not given)	inconclusive: 14.1 µM [inhibitor, single point]	
CS(=O)(=O)c1cnc(NCCCc2ccccn2)nc1C1CCCNC1 (stereo not given)	inactive	
CC(=O)N1CCN(c2cncc(C(=O)N3CCOCC3)n2)CC(O)C1 (stereo not given)	inactive	
Cc1cccc(C(=O)N2CCC(N3C(=O)C4(CCCC4)C3c3scnc3C)CC2)c1 (stereo not given)	inconclusive: 3.98 µM [inhibitor, single point]	
COc1ccc(C(=O)NCC2c3cc(OC)c(OC)cc3CCN2C(=O)Nc2ccccc2F)cc1 (stereo not given)	inactive	
CC(=O)N1CCC2(CC1)CN(C(=O)c1ccc3[nH]ccc3c1)Cc1ccccc1O2	active: 10 µM	
COc1ccccc1C(=O)N1CCCCC1c1noc(COc2ccc(C)cc2)n1 (stereo not given)	inconclusive: 15.8 µM [inhibitor, single point]	
COc1cccc(C(=O)N2CCC(n3c(=O)[nH]c4ccccc43)CC2)c1	inactive	
COCCn1cc2c3c(cccc31)CN(C(=O)CCCc1ccccc1)CC2	inconclusive: 17.8 µM [inhibitor, single point]	
O=C1CC(c2ccccc2)N(Cc2ccncc2)CCCN(C(=O)CN2C(=O)CCC2=O)CCN1 (stereo not given)	inactive	
CC(C)N1C(=O)Cc2ccccc2C1C(=O)NCc1cccc(F)c1 (stereo not given)	inconclusive: 20 µM [inhibitor, single point]	
CCN1CCN(C(=O)Cc2cccn2-c2ccc(F)cc2)CC1	inactive	
Cc1ccc(-n2nc(C)c3c(C(F)(F)F)cc(-c4cccnc4)nc32)cc1C	inconclusive: 3.55 µM [inhibitor, single point]	
CN(C)CCCN(C)c1nccc(C2(c3ccccc3Cl)CCNCC2)n1	inconclusive: 17.8 µM [inhibitor, single point]	
COc1ccc(-c2cc(N3CCCC(NC(=O)c4sccc4C)C3)n[nH]2)cc1 (stereo not given)	inconclusive: 2.51 µM [inhibitor, full curve]	
O=C(COc1ccccc1)N1CCC(c2noc(-c3ccncc3)n2)C1 (stereo not given)		inactive: 16.4% [at 5.79 µM]
CCCCN(C)CCCNC(=O)c1cn(CC)c2ccc(S(=O)(=O)N3CCc4ccccc4C3)cc2c1=O	inconclusive: 11.2 µM [inhibitor, partial curve, poor fit]	
c1ccc(-c2nc(-c3ccncc3)no2)c(OC2CCN(C3CCCC3)C2)c1 (stereo not given)	inconclusive: 0.447 µM [inhibitor, full curve, poor fit]	
CN1CCc2c([nH]c3ccccc23)C12CCN(C(=O)c1ccc3ccccc3n1)CC2	inconclusive: 1.78 µM [inhibitor, partial curve, poor fit]	
